Test results as given in PubChem BioAssay AID1346428 (National Center for Advancing Translational Sciences (NCATS), 2018).
Where “and” joins values, the source holds several entries; their conditions need not be identical. Identical values can stand only once. Screen size: about 48,000 compounds; about 1,200 (2.5%) were called active. Roughly 2% stayed inconclusive and do not appear here.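 Rule for the calls: active = activation of at least 60% and not above a set upper limit (about 1 call in 100 departs from these limits); inconclusive = activation of 40% to 60%, or above that upper limit; inactive = activation under 40%.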 The list shows a part of the results.

These compounds were tested against Probable G-protein coupled receptor 32 (Homo sapiens) (UniProt O75388) (assay: qHTS for Agonists of Human Resolvin D1 Receptor DRV1). Conditions: CHO-K1 GPR32 beta-arrestin PathHunter luminescence, 90 min; at 76.9 µM; stronger effect = higher value; zero percent set by DMSO-only wells.
Sequence of UniProt O75388 (O75388 whole entry, looked up): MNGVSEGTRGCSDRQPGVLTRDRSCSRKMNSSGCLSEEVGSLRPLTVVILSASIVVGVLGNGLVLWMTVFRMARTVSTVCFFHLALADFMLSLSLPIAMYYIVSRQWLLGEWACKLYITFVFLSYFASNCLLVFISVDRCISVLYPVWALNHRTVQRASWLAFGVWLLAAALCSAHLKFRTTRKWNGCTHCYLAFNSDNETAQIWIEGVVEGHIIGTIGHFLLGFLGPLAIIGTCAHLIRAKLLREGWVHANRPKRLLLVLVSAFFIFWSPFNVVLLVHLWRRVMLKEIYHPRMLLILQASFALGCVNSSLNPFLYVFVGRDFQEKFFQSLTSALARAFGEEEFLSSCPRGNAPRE
Outline: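 Using DMSO wells as EC0, agonist-induced signal was taken as chemiluminescence from beta-Gal reconstituted upon beta-arrestin recruitment to GPR32 in CHO-K1 cells after 90 min compound treatment.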
Note: 0% is about no effect.

activation, active:
COc1cccc(CNC(=O)Cn2c(SCC(=O)Nc3ccc(C)c(C)c3)nc3ccccc32)c1 113%

activation, inactive:
Cc1ccc(NC(=O)C2CCCN(S(=O)(=O)c3c(C)nn(C)c3C)C2)c(C)c1 (centres undefined) 6.85%
CCOC(=O)N1CCN(Cc2nc3cc(NC(=O)c4ccc([N+](=O)[O-])cc4)ccc3n2C(C)C)CC1 -8.12%
CCN1C(=O)c2ccccc2S(=O)c2ccc(C(=O)NCc3ccccc3OC)cc21 (centres undefined) 8.63%
CCCCCOc1ccc(NC(=O)Cn2c(-c3cncs3)nc3ccccc32)cc1 -14.8%
O=C(O)c1c2c(nc3ccc(S(=O)(=O)N4CCC(C(=O)NCc5ccc(Cl)cc5)CC4)cc13)CCCC2 -29.9%
CSc1ccc(NC(=O)Cn2nnnc2-c2ccccc2F)cc1 43.8%
COc1ccc(S(=O)(=O)NCC(c2ccco2)N2CCN(c3ccccc3F)CC2)cc1C (centres undefined) -33.7%
COc1cc(/C=C/c2nc3cc(Cl)ccc3c(=O)n2-c2ccc(C)cc2C)cc(OC)c1OC -25.4%
CCOC(=O)c1c(C)oc2nc(C)nc(N3CCN(c4cccc(C)c4C)CC3)c12 4.83%
Cc1cc(Nc2cccc(C(F)(F)F)c2)nc2ccc(NC(=O)c3cccnc3)cc12 19.3%
Cc1ccccc1-c1noc(-c2ccc(N3CCCC3)c([N+](=O)[O-])c2)n1 24.2%
CC(=O)N1CCCc2ccc(NC(=O)c3ccc(C(F)(F)F)cc3)cc21 -6.55%
CC(C)c1ccc(-c2noc(SCC(=O)N(C)c3ccc(F)cc3)n2)cc1 8.05%
CCOC(=O)c1cc(OC(=O)c2cccc(F)c2)n(-c2ccccc2)n1 -5.86%
O=C(NCc1cccnc1)C1CCN(Cc2cc3ccccc3n2Cc2ccccc2)CC1 -10.2%
CCOc1ccc(N(C(=O)c2ccc(OC)cc2)S(=O)(=O)c2ccc3c(c2)n(C)c(=O)n3C)cc1 -30.1%
CCC(=O)C1=C(c2ccc(F)cc2)N(C(=O)CC)n2c(nnc2C2CCCCC2)S1 -36.4%
CC(C)c1ccc(NC(=O)CN2C=NS(=O)(=O)c3ccccc32)cc1 28.9%
CCC(=O)OC1=CN(Cc2ccccc2)S(=O)(=O)c2ccccc21 -6.54%
COC(=O)c1cc2oc(C)cc2n1Cc1ccc(C)cc1 -39.1%
CCN(CC)S(=O)(=O)c1ccc2c(c1)N(CC(=O)Nc1c(C)cc(C)cc1C)C(=O)CS2 -18.4%
Cc1cc(C)cc(NC(=O)CSc2nnc(CNC(=O)c3c(F)cccc3Cl)o2)c1 -6.41%
N#C/C(=C\c1c(Oc2ccc(F)cc2)nc2ccccn2c1=O)c1nc2ccccc2s1 21.9%
CCOc1ccc(CCNC(=O)Cn2nc(CC)n3c(cc4c(OC)cccc43)c2=O)cc1OCC -1.64%
Cc1cccc(N2CCN(C(=O)CN3C(=O)COc4ccc(S(=O)(=O)N5CCCC5)cc43)CC2)c1C -2.28%
CCc1ccc(CNC(=O)C2CCN(C(=O)c3ccc(-n4ccc5ccccc54)s3)CC2)cc1 13.6%
O=C1CC(c2ccc(F)cc2)c2c(n3c(nc4ccccc43)[nH]c2=O)N1 (centres undefined) 3.55%
CCCOc1ccc(C(=O)Nc2sc3c(c2C(=O)OCC)CCCCC3)cc1 8.07%
O=C(O)CCCCC1CCSS1 (centres undefined) -7.37%
COCC(=O)O[C@]1(CCN(C)CCCc2nc3ccccc3[nH]2)CCc2cc(F)ccc2[C@@H]1C(C)C 36% and 48.5%
Cc1oc(-c2cccc(Br)c2)nc1CSc1nc2ncccc2[nH]1 -4.19%
Cc1ccccc1CS(=O)(=O)c1ncc(Cl)c(C(=O)Nc2nnc(C(C)C)s2)n1 -2.03%
Oc1ccc(NCc2ccccc2OCc2ccccc2Cl)cc1 -22.9%
CN(C)c1ccc(NC(=O)CSC2=Nc3ccccc3C3=NC(CC(=O)NCc4ccc5c(c4)OCO5)C(=O)N23)cc1 (centres undefined) 9.8%
Cc1ccc(S(=O)(=O)Nc2c(C)nc3nc(C)[nH]n3c2=O)c(C)c1 -7.18%
Cc1cccc(-n2ncc(C(=O)Nc3ccc4c(c3)OCO4)c2C2CCN(C(=O)OC(C)(C)C)CC2)c1 -24.8%
COc1ccc(Cl)cc1NC(=O)c1c(NCc2cccs2)sc2c1CCCC2 -21.6%
COc1ccc(C(=O)NCc2nnc(SCC(=O)Nc3ccc(F)cc3)n2-c2ccccc2)cc1 2.93%
COC(=O)c1ccc(NC(=O)CSc2nc3c(c(=O)n(C)c(=O)n3C)n2Cc2ccccc2)cc1 -8.91%
CC(C)C(=O)c1cc2c(cc1NC(=O)c1ccccc1F)OCCO2 -12.9%
Cc1ccc(NC(=O)Cn2cnc3c(oc4ccccc43)c2=O)cc1 8.71%
Cc1ccc(C(=O)c2oc3ccccc3c2NC(=O)COc2ccc(C(C)(C)C)cc2)cc1 -11.5%
Cc1ccc(COc2cccc3cc(-c4noc(-c5ccc(C)cc5)n4)c(=O)oc23)cc1 -4.91%
Oc1cc2c(c(Cl)c1O)CCNCC2c1ccccc1 (centres undefined) 6.33%
Cc1cc(Nc2ccc(Cl)cc2)n2cnnc2n1 -4.25%
CC(=O)N1CCc2cc(S(=O)(=O)CCC(=O)N3CCN(c4ccccc4F)CC3)ccc21 15.9%
Cc1ccccc1-c1noc(-c2cc(C(C)C)[nH]n2)n1 -10.9%
COc1ccccc1Cc1nc2ccccc2nc1SCC(=O)N1CCCc2ccccc21 -16.6%
CCOc1ccccc1N1CC(c2nc3ccccc3n2CCOc2ccccc2OC)CC1=O (centres undefined) -9.09%
CCN(CC)S(=O)(=O)c1ccc(C(=O)O)cc1 4.79%
COc1ccc(-c2nnc(SCC(=O)c3ccc([N+](=O)[O-])cc3)o2)cc1OC -2.1%
Cn1nc(-c2ccc(C(=O)Nc3ccc(OC(F)(F)F)cc3)cc2)c2ccccc2c1=O 14.8%
N#C/C(=C\c1ccc(-c2ccc(Cl)c(C(=O)O)c2)o1)c1nc2ccccc2[nH]1 -0.738%
Cc1ccc(-n2c(SCc3ccccc3C)nc3[nH]ncc3c2=O)cc1C -48%
O=C(NCc1ccccc1Cl)C(=O)NCC(c1cccs1)S(=O)(=O)c1ccccc1 (centres undefined) 0.0742%
Cc1cccn2c(=O)c3cc(C(=O)NC(C)c4ccccc4)c(=N)n(CCOCCO)c3nc12 (centres undefined) 3.11%
COc1ccc2c(c1)Cc1sc(NC(=O)c3ccc(Cl)cc3)nc1-2 -32.8%
CCCSc1ncc(Cl)c(C(=O)NCc2ccc(C)cc2)n1 -8.99%
COc1ccc(CNC(=O)CCS(=O)(=O)c2cc3c4c(c2)CCN4C(=O)CC3)cc1OC 0%
Cc1cc(Cl)ccc1NC(=O)CCS(=O)(=O)c1ccc2c(c1)CC(C)N2C(=O)C1CC1 (centres undefined) 1.31%
CCOC(=O)c1c(C)[nH]c(CCC(=O)NCc2cc(Br)ccc2OC)c1C -20.9%
COc1ccc(C2C(C(=O)Nc3cccnc3)=C(C)Nc3nc(-c4ccc(OC)c(OC)c4)nn32)cc1 (centres undefined) -2.92%
O=C(Nc1cc(Cl)ccc1O)c1cc(-c2ccc3c(c2)OCO3)on1 9.42%
Cc1c(C(=O)N2CCCC2)oc2c1-c1nn(CC(=O)NCc3ccccc3F)cc1CC2 -2.73%
CCc1nn2c(=O)c(S(=O)(=O)Nc3ccc(C)cc3C)c(C)nc2s1 -5.17%
COc1ccc(-c2nc(CSCC(=O)NCCc3ccc(OC)c(OC)c3)c(C)o2)cc1 -10.8%
Cc1sc(NC(=O)C2c3ccccc3Oc3ccccc32)c(C(=O)OC(C)C)c1C -13.9%
Cc1ccc(S(=O)(=O)c2nnn3c2nc(N(C)Cc2ccccc2)c2cc(Cl)ccc23)cc1C -12.8%
COc1ccccc1CNC(=O)c1cc2cccc3c2n1CCS3 -13.5%
CC(C)NC(=O)C1=CC(c2ccc3c(c2)OCO3)=NS(=O)(=O)N1C -4.96%
O=C(CS(=O)(=O)c1nc(-c2ccc(Cl)cc2)cn1-c1ccccc1)Nc1cccc(Cl)c1 -2.75%
O=C(Cn1c2ncccc2c(=O)n1-c1ccccc1)NCc1ccccc1 -16.1%
O=C(NCc1ccccc1Cl)c1cc(-c2ccccc2)n[nH]1 11.4%
Cc1oc(-c2cccc(Br)c2)nc1CN1CCC(C(=O)NCc2ccccc2)CC1 0.192%
Cc1ccc(NC(=O)c2ccc(F)c(S(=O)(=O)NCCc3ccccc3)c2)cc1F 20.2%
CC(C)NCC(O)c1cc(O)cc(O)c1 (centres undefined) 6.49% and 1.82%
Cc1nc(-c2ccccc2)sc1-c1ccc(SCC(=O)Nc2ccccc2)nn1 -11.5%
COc1cccc(CNC(=O)Cc2c(C)c3cc4c(C)coc4cc3oc2=O)c1 -8.95%
COc1cccc(C2C(C(N)=O)=C(C)Nc3nc(CCCO)nn32)c1 (centres undefined) -0.0788%
COc1cccc(NC(=O)c2csc3c2CCCCC3)c1 -34.9%
CCc1ccc(NC(=O)N2CCN(c3nnc(C)c4c(C)n(-c5ccc(Cl)cc5)nc34)CC2)cc1 4.08%
Cc1cc(C)cc(NC(=O)CSc2nccn2C2CCCC2)c1 -16.2%
c1ccc(Nc2c(-c3ccccc3)nc3ncccn23)cc1 0.0884%
